The values that follow come from PubChem BioAssay AID463173 (ICCB-Longwood Screening Facility, Harvard Medical School, 2010).

The whole screen tested about 52,000 compounds, of which about 1,700 (3.3%) were called active. Cut-off read from the data, not from the text of the source: active = survival mostly below about 52% (no sharp cut-off); inactive = mostly above about 56%. Some of the results follow.

The assay relates to Wild type. The assay is described as follows: S. aureus survival, RN4220 and DeltatarO strains – OD600, teichoic acid synthesis inhibitors, primary screen (AID 463173). To be noted: S. aureus RN4220 wild type/DeltatarO growth, OD600, 18 h, active compounds read low, screened at 18.75 µg/mL (by protocol).
For `CCC(C(=O)Nc1cccc(-c2cn3cccnc3n2)c1)c1ccccc1` (centres undefined), the survival is inactive: 93%.
In the case of `CC(C)c1ccc(NC(=O)N2CCCC2C(=O)Nc2ccc(-n3cnnn3)cc2)cc1` (centres undefined), the survival was inactive: 104%.
In the case of `COc1ccc(Br)cc1CNC(=O)CCCn1c(=O)c2cccn2c2ccccc21` it was inactive: 50%.
In the case of `Cc1cccc(-c2nnc(-c3ccccc3)o2)c1` it was inactive: 112%.
In the case of `CCC(Oc1ccccc1F)C(=O)Nc1c(C(=O)c2ccccc2)oc2ccccc12` (centres undefined) it was inactive: 54%.
On to `CC(C)(C)OC(=O)N1CCC(c2c(C(=O)NCc3ccc4c(c3)OCO4)cnn2-c2ccc(F)cc2F)CC1`, for which the survival is inactive: 84%.
In the case of `O=C(Nc1ccc(Cl)cc1)C1CCN(c2nc3ccccc3n3cccc23)CC1` it was inactive: 97%; in that of `CN(C)c1ccc(C(CNS(=O)(=O)c2ccc(Cl)cc2)N2CCCC2)cc1` (centres undefined), active: -3%.
In the case of `CC1=C(C(=O)Nc2ccc(C)cc2C)C(c2ccccc2C)n2ncnc2N1` (centres undefined) it was inactive: 73%; in that of `COc1ccc(CCNC(=O)NCc2noc3ccccc23)c(OC)c1`, inactive: 89%; in that of `CC(=O)NS(=O)(=O)c1ccc(NC(=O)c2ccco2)cc1`, inactive: 103%.
Turning to `COc1cccc(-c2nnc3n(Cc4ccc(F)cc4)c(=O)c4ccccc4n23)c1`, the survival is inactive: 81%.
In the case of `COc1cc(NC(=O)c2noc3c2CCc2ccccc2-3)cc(OC)c1OC` it was inactive: 82%; in that of `Cc1ccc(-c2noc(CN(C3CCCCC3)S(=O)(=O)c3ccc(C)cc3)n2)cc1`, inactive: 85%; in that of `Cc1nn(-c2ccc3nncn3n2)c(C)c1CCC(=O)Nc1ccc(OC(F)(F)F)cc1`, inactive: 99%.
Turning to `COc1cc(C(=O)NCC(c2cccnc2)N2CCN(c3ccc(F)cc3)CC2)cc(OC)c1OC` (centres undefined), the survival was inactive: 85%.
With `Cc1cccc(-c2nc3c(C#N)c[nH]n3c2NC2CCCCC2)c1`, the survival is inactive: 59%.
Consider `Cc1ccccc1CNC(=O)c1ccc(-n2c(C)cc3c2CCCC3)cc1`, for which the survival was inactive: 127%.
Next, `COc1cccc(CC(NC(C)=O)C(=O)NC2CCN(c3nc(C)cc(C)n3)CC2)c1OC` (centres undefined): inactive: 112%.
Take `COc1ccccc1CNC(=O)C1CCN(Cc2nc(-c3ccc(OC)c(OC)c3)oc2C)CC1`: the survival is inactive: 123%.
Turning to `Cc1ccc(OCCn2c(-c3ccc(Cl)cc3)nc3ccccc3c2=O)c(C)c1`, the survival was inactive: 68%.
With `c1ccc(CCn2nnnc2CN2CCCc3ccccc32)cc1`, the survival is inactive: 112%.
Consider `CCCN(C(=O)c1cc2c(Cl)nc3ccccc3c2s1)c1cccc(C)c1`, for which the survival is active: 1%.
For the molecule `COCCNC(=O)c1ccc(Cn2c(SCC(=O)NC(C)C)nc3ccccc3c2=O)cc1`, the survival was inactive: 79%.
Regarding `CCCN(CCC)C(=O)Cn1c(=O)n(Cc2ccc(C(=O)NCCc3ccc(OC)c(OC)c3)cc2)c(=O)c2ccccc21`, the survival was inactive: 135%.
On to `CCOc1cc(CNc2ccc(O)cc2)cc(Br)c1OCc1ccccc1`, for which the survival is active: -5%.
Regarding `COc1ccc(CNC(=O)c2ccc3c(c2)N(Cc2ccccc2)C(=O)c2ccccc2S3(=O)=O)cc1`, the survival was inactive: 87%.
As for `COc1ccc(-c2cc3nc(C4CCN(C(=O)OC(C)(C)C)CC4)c(C(=O)Nc4cc(Cl)cc(Cl)c4)cn3n2)cc1`, the survival is inactive: 80%.
As for `CCOc1ccccc1N(C)C(=O)c1nn(-c2ccc(C)cc2)c(=O)c2c1c1ccccc1n2C`, the survival was inactive: 135%.
Take `COc1ccc(OC)c(NC(=O)c2csnn2)c1`: the survival is inactive: 86%.
For `COCCCNC(=O)c1cc(-c2cccnc2)nc2ccccc12`, the survival is inactive: 118%.
For `CCOc1ccccc1-c1nnc(SCc2ccc(Cl)cc2)o1`, the survival was active: -14%.
`COc1ccc(-n2c(SCC(=O)N3CCC(C)CC3)nc3c([nH]c4ccccc43)c2=O)cc1`: the survival is inactive: 79%.
On to `CC1=C(C(=O)Nc2ccc(C)cc2C)C(c2sccc2C)n2ncnc2N1` (centres undefined), for which the survival is inactive: 74%.
In the case of `CCc1nnc(SCC(=O)Nc2ccc3c(c2)OCO3)n1CC1CCCO1` (centres undefined) it was inactive: 116%; in that of `CCOc1cccc(C2c3c(oc4ccccc4c3=O)C(=O)N2c2nc(C)c(C(=O)OC)s2)c1` (centres undefined), inactive: 66%; in that of `OC(COCc1ccccc1)CN1CCCC1` (centres undefined), inactive: 108%.
Turning to `Cc1ccc2occ(CC(=O)Nc3nnc(C(C)C)s3)c2c1`, the survival is inactive: 91%.
Next, `O=C(Nc1nnc(S(=O)(=O)N2CCCc3ccccc32)s1)c1ccccc1Br`: inactive: 27%; `Cc1ccc(CNC(=O)CCCCn2c(=O)c3ccccc3n(Cc3ccc(Cl)cc3)c2=O)cc1`: inactive: 119%.
`Cc1nc2sc(C(=O)NCc3ccc(Cl)cc3)c(NC(=O)c3ccccc3)c2c(C)c1C`: the survival was inactive: 86%.
Turning to `Cc1ccc(-n2ncc(C(=O)Nc3ccc(C)c(F)c3)c2C2CCN(C(=O)OC(C)(C)C)CC2)cc1C`, the survival is inactive: 127%.
For the molecule `CCOc1cc(C2c3c(oc4ccccc4c3=O)C(=O)N2Cc2ccc3c(c2)OCO3)ccc1O` (centres undefined), the survival is inactive: 90%.
Next, `COc1cccc(N2CCN(c3nc4ccc(C(=O)c5ccccc5)cc4n4c(C)nnc34)CC2)c1`: inactive: 75%; `Cc1ccc(NC(=O)Cn2c(CCC(=O)O)ccc2-c2cccs2)cc1`: inactive: 86%.
As for `CCC(C(=O)OCc1cc(=O)n2nc(CCOC)sc2n1)c1ccccc1` (centres undefined), the survival was inactive: 136%.
For the molecule `Cc1ccccc1NC(=O)c1nc(-c2ccncc2)no1`, the survival was inactive: 85%.
On to `O=C(Cn1cc(/C=N/NC(=S)Nc2ccccc2)c2ccccc21)NCc1ccco1`, for which the survival is inactive: 117%.
Next, `Cc1ccc(NC(=O)NCc2cccn2Cc2ccccc2)cc1F`: inactive: 75%; `Cc1ccc(-c2cn3c(n2)sc2cc(C(=O)N4CCCCC4)ccc23)cc1`: inactive: 86%; `Cc1cc(C)c2c(=O)cc(C(=O)Nc3ccc(S(=O)(=O)Nc4nc(C)cc(C)n4)cc3)oc2c1`: inactive: 107%.
With `COC(=O)C(C)Sc1nc2c([nH]c3ccccc32)c(=O)n1-c1ccc(OC)cc1` (centres undefined), the survival is inactive: 75%.
Next, `N#Cc1c(-c2cccs2)cc(-c2cccs2)nc1SCc1cccnc1`: inactive: 104%.
As to `O=C(Nc1ccc2nc(SCC(=O)N3CCCC3)sc2c1)c1ccc(F)cc1`, the survival was inactive: 87%.
Take `CCOc1ccccc1NC(=O)Cn1c(=O)n(Cc2ccccc2)c(=O)c2c(C)c(C(=O)N(C)C)sc21`: the survival was inactive: 71%.
Next, `CCN(CC)C(=O)CSc1nc2cc3c(cc2c(=O)n1Cc1ccc(C(=O)NCCc2ccc(OC)c(OC)c2)cc1)OCO3`: inactive: 77%; `COc1cc(Cl)c(C)cc1NC(=O)c1cn(CC(C)C)c(=O)c2cc(OC)c(OC)cc12`: inactive: 76%; `COc1ccc(CNC(=O)CCCn2c(SCC(N)=O)nc3cc4c(cc3c2=O)OCO4)cc1`: inactive: 117%.
For `O=C(NCc1ccncc1)c1c(O)c2ccccc2[nH]c1=O`, the survival is inactive: 113%.
As to `Cc1cc(Nc2cccc(Cl)c2C)n2nc(Cc3ccccc3)nc2n1`, the survival was inactive: 81%.
Consider `CC(NC(=O)c1ccccc1)c1nc2ccccc2n1Cc1ccc(Cl)cc1` (centres undefined), for which the survival was inactive: 90%.
Next, `COc1ccc(CNC(=O)c2cnn3c(C)c(Cc4ccc(F)cc4)c(C)nc23)cc1`: inactive: 66%.
In the case of `CC(C)OCCCNC(=O)CCCn1c(SCC(=O)c2ccc(Br)cc2)nc2c(sc3ccccc32)c1=O` it was inactive: 83%; in that of `Cc1cc(C)c(NC(=O)Cn2c(=O)n(CCCCC(=O)NCc3ccccc3Cl)c(=O)c3ccccc32)c(C)c1`, inactive: 106%.
Take `COc1cc(CN(CC2CCCO2)C(=O)c2ccccc2F)cc(OC)c1OC` (centres undefined): the survival was inactive: 83%.
In the case of `Cc1ccc(Cl)cc1NC(=O)Cn1nc2c(cc1=O)CC(C)CC2` (centres undefined) it was inactive: 73%.
For `CCOc1ccc(NC(=O)CN2C(=O)COc3ccc(S(=O)(=O)Nc4ccccc4)cc32)cc1`, the survival is inactive: 67%.
Regarding `Cc1ccc(OCCSc2nc3ccccc3n2CC(=O)N2CCOCC2)c(C)c1`, the survival was inactive: 107%.
Turning to `COc1ccc(C(=O)Nc2ccc3nc4n(c(=O)c3c2)CCCCC4)cc1OC`, the survival was inactive: 91%.
For the molecule `O=C(NNc1ncnc2c1cnn2-c1ccccc1)c1cccc(Cl)c1`, the survival is inactive: 148%.
Take `CCC(=O)N1CCc2cc(Br)cc(S(=O)(=O)N3CCC(C(=O)NC(C)(C)C)CC3)c21`: the survival was inactive: 86%.
On to `COc1ccc(Cl)c(Cn2c(NCCN)nc3c2c(=O)n(C)c(=O)n3C)c1`, for which the survival was inactive: 84%.
As for `COc1ccc(C(=O)NCc2nnnn2-c2ccc(C)c(C)c2)cc1`, the survival was inactive: 75%.
Next, `CSc1nc(-c2ccc(Cl)cc2)nn1C(C)=O`: inactive: 102%; `CC(C)Cn1c(=O)c2ccccc2n2c(-c3cccc(Cl)c3)nnc12`: inactive: 89%.
Next, `CCc1ccccc1NC(=O)CSc1nnc(-c2nonc2NC(C)=O)n1C`: inactive: 85%.
As to `Cc1ccnc(NC(c2ccccc2F)c2ccc3cccnc3c2O)c1` (centres undefined), the survival was active: -8%.
Regarding `N#Cc1ccc(-c2cccs2)nc1SCc1ccc(Cl)cc1Cl`, the survival is inactive: 63%.
Next, `CCOc1ccc(NC(=O)N2CCOc3ccccc32)cc1`: inactive: 86%; `Cc1ccc(Cl)cc1Nc1nc2ccccc2n2c(C)nnc12`: inactive: 92%.
For `O=C1NC(c2ccccc2)Oc2ccccc21` (centres undefined), the survival was inactive: 103%.
As for `CCCOc1ccccc1Cn1c(=O)sc2ccccc21`, the survival was active: -5%.
Next, `CCCCc1nn2c(=O)cc(COC(=O)c3ccccc3NC(=O)C(C)(C)C)nc2s1`: inactive: 117%.
In the case of `Cc1cc(NS(=O)(=O)c2ccc(NC(=O)COc3ccc(Br)cc3C)cc2)no1` it was inactive: 65%.
On to `CCOC(=O)c1ccc(NC(=O)CN2C(=O)c3cccnc3Oc3ccc(Cl)cc32)cc1`, for which the survival was inactive: 85%.
As for `Cc1ccc(N2CCn3c2nc2c3c(=O)n(CCc3ccccc3)c(=O)n2C)cc1C`, the survival was inactive: 85%.
As to `Cc1[nH]c(=O)[nH]c(=O)c1C1N2CC3(C(C)C)CN1CC(C(C)C)(C2)C3=O` (centres undefined), the survival was inactive: 86%.
Next, `Cc1ccc(-n2ncc(C(=O)N3CCN(c4cccc(C)c4)C(C)C3)c2C2CCN(C(=O)OC(C)(C)C)CC2)cc1` (centres undefined): inactive: 152%; `Cc1ccc(CNC(=O)Cn2nc(C)n3cccc3c2=O)cc1`: inactive: 90%.
